Measurements published in the supplement of paper PMC10338343.
± gives the standard deviation. The entries are a selection whose mix differs from that of the whole data set.

test system: MIWI (PIWIL1) piRISC loaded with piRNA #1 (30 nt); experiment: pre-steady-state target cleavage rate (min^-1); MIWI and MILI are mouse PIWI proteins and EfPiwi is from a freshwater sponge; tags in brackets are library labels; higher = faster piRNA-guided slicing of the target; details: guide: piRNA #1 5'p-UGAGGUAGUAGGUUGUAUAGUAUCCAGAGG; auxiliary factor: 500 nM mouse GTSF1
How it was run: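 A burst-and-steady-state fit was used to obtain the pre-steady-state cleavage rate. The input data were sequencing reads of uncleaved targets, normalised to depth and to weakly complementary targets, from a […] transcribed, DNA-blocked target RNA library mixed with 1 nM active affinity-purified piRISC holding one synthetic guide, with or without 500 nM GTSF1 partner protein, in HEPES–potassium acetate buffer at 33 °C for 0–8 or 0–960 min. Three trials were pooled and k3 was capped at 0.0001 min^-1.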
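Note: 1 nM active piRISC with 0.1 nM target library at 33 °C single turnover.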

| Sequence | pre-steady-state target cleavage rate |
| --- | --- |
| CCUCUGGAUACUUUACAACCUACUAGCUCA | 1.04 ± 0.084 |
| GGAGACCUAUCUUAUACAACCUACUACCUCA | 0.485 ± 0.066 |
| GGAGACCUAUCUAUGCAACCUACUACCUCA | 0.706 ± 0.071 |
| GGUCUGGAUCUAUACAACCUACUACCUCA | 1.62 ± 0.1 |
| GGAGACCUUAGUAUACAACGUACUACCUCA | 0.0699 ± 0.015 |
| GGAGACCUAUCUAUACAACCUACGACCUCA | 0.315 ± 0.035 |
| GGAGACCUAUCGUAUACAACCUACUACCUCA | 0.0738 ± 0.012 |
| GGAGACGAUACUAUACAACCCACUACCUCA | 0.669 ± 0.029 |
| GGAGACCUAUGUAUACAACCUUGAUGGAGA [g10:g19:cont:t1A] | < 0.0001 |
| GGAGAGGUUACUAUACAACCUUCUACCUCA | 0.46 ± 0.025 |
| GGAGACCAUACUAUCACAACCUACUACCUCA | 0.936 ± 0.082 |
| GGAGACCAUACUAUAGAACCUACUACCUGA | 0.163 ± 0.038 |
| GCGUCUGGAUACUAUACAACCUACUACCUCA | 1.97 ± 0.16 |
| GGAGAGGAUAGUAUACUACCUACUACCUCA | 0.0593 ± 0.011 |
| GGUCUGGAUACUUUACAACCUAGUACCUCA | 0.22 ± 0.036 |
| GCUCUGGAUACUAAACAACCUACUACCACA | 1.65 ± 0.12 |
| GGAGACCUUACUAUACAACCUAAUACCUCA | 0.814 ± 0.073 |
| GGACUGGAUACUAUAUAACCUACUACCUCA | 1.8 ± 0.12 |
| GCGCUGGAUACUAUACAACCUACUACCUCA | 1.85 ± 0.1 |
| GGUCUGCAUACUAUUCAACCUACUACCUCA | 1.65 ± 0.12 |

| Sequence | pre-steady-state target cleavage rate |
| --- | --- |
| GGUCUGGAAACUAUACAACCUACAACCUCA | 0.272 ± 0.044 |
| GGAGACGAUAGUAUACAACCUACUACGUCA | 0.0598 ± 0.018 |
| GGAGACCUAUGAUAUCAACCUACAACCUCA | < 0.0001 |
| GGUCUCGAUAGUAUACAACCUACUACCUCA | 1.67 ± 0.11 |
| GGAGACCUAUGAUAUGUUCCUAUUACCUCA | < 0.0001 |
| GGACUGGAUACUAUACAACCUACUACGCUCA | 0.564 ± 0.072 |
| GGAGACCUAUGAUAUGUACCUACUAGGAGA [g6:g13:cont:t1A] | < 0.0001 |
| GGAGACCUAAGAAUACAACCUACUACCUCA | 0.00513 ± 0.0038 |
| GGAGACCUAUGUAUACAACCUACUAGCACA | 0.00244 ± 0.0019 |
| GGUCUGGAUACUAUACAACCAACUACCUCA | 0.149 ± 0.015 |
| GGAGACCUAUGAUAUGAACCUACUACGAGA [g5:g14:cont:t1A] | < 0.0001 |
| GGUCAGGAUACUAUACAACCUACUUCCUCA | 0.341 ± 0.061 |
| GGAGAGGAUACUAUACAACCUAAUACCUCA | 0.651 ± 0.05 |
| GGAGACCUAUCUAUACUACCUACUACGUCA | 0.025 ± 0.0069 |
| GGAGACCUUACUAUACAACCAACUUCCUCA | 0.0154 ± 0.0044 |
| GGAGACCUAUGAUAUGUUCCUAGAACCUCA | < 0.0001 |
| GGAGACCAUACUAUACAACCUACAACGUCA | 0.365 ± 0.056 |
| GGACAGGAUACUAUUCAACCUACUACCUCA | 1.69 ± 0.11 |
| GGAGUGGAUACUAUACAACGUUCUACCUCA | 0.118 ± 0.012 |
| GGAGACCUAACUAUACAACGUACUACCUCA | 0.29 ± 0.032 |
